# Measured values: the supplement of paper PMC3334620
# Over roughly 33,000 sequences, “E-score (-0.5 to 0.5)” has its median near -0.013; the highest 2% begin near 0.3. The list shows a part of the results.
# Biological target: T1, Msn1 (UniProt P22148)
# T1 sequence: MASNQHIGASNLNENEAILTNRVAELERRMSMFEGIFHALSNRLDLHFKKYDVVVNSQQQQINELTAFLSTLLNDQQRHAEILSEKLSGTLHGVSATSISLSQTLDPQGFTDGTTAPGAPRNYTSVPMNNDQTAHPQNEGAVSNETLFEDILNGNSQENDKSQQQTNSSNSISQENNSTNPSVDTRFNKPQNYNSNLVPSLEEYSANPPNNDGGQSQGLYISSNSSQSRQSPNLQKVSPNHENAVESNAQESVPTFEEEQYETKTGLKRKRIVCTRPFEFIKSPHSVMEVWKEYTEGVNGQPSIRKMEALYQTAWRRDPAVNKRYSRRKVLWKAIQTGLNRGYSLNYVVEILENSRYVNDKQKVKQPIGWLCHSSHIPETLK
# Test: PBM E-score (8-mer binding enrichment) (E-score (-0.5 to 0.5)); higher = stronger / more preferred TF binding; most listed sequences are background and not binding sites
# Settings: protein concentration: 200 nM; construct: GST-full length
# Summary of the method: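 Yeast transcription factors, full-length or as DNA-binding domains, were expressed with a GST tag using PURExpress in vitro transcription/translation. At about 100-200 nM they were applied to universal all-10-mer Agilent arrays, double-stranded by primer extension on fresh or once-stripped slides. Fluorescent anti-GST detected bound protein, and masliner normalised the scans. E-scores for ungapped eight-base words, pooled with reverse complements, came from the Universal PBM Analysis Suite.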
row,Sequence,PBM E-score
1,ATTCTGGG,0.0359
2,CCCGCGGA,0.0169
3,AAACCAAG,0.15
4,GACAGCTA,0.00802
5,ATGAGTCG,-0.04
6,GCTGAAAC,0.0628
7,CATACTCC,0.0999
8,AGTTGCTG,-0.00412
9,CGCATAAG,0.0399
10,AAGATACG,0.0299
11,AATGCTGG,-0.16
12,AGACTCGC,-0.0765
13,ACGGGGCA,-0.134
14,AATTACTA,0.0853
15,CATATTAC,0.141
16,CTCCTCCC,-0.172
17,AATTGCTA,0.00987
18,ACCCCCGT,-0.336
19,CCTTACGC,0.145
20,CCCATCGA,-0.171
21,AAGTAGGA,0.0343
22,CGATACCG,-0.0866
23,ACAGGTTC,-0.138
24,ACTTGCTA,-0.107
25,GTAAGTGA,0.0352

row,Sequence,PBM E-score
1,CGATATGA,-0.00978
2,CATTAAGA,0.164
3,TATGCAGA,0.0372
4,GGGCTCTA,-0.0347
5,ACATAAAG,0.224
6,AGCAGCCC,-0.154
7,AAAACAGG,0.0274
8,CAGTCAAC,-0.107
9,ATGCACAG,-0.18
10,AGACAACC,0.208
11,AATGTCAA,0.3
12,CAGTTTTC,0.0984
13,AGCCTGAG,-0.236
14,AGGACGTA,0.295
15,GGTCGGAA,-0.00455
16,GATCCGGA,0.0679
17,ATACGGCG,0.00302
18,AATTTCGC,-0.0241
19,ATAGCATC,-0.0253
20,ATATTTAG,0.209
21,CGGGTATC,-0.129
22,GCGGTCGA,0.139
23,TGGGGCAA,-0.162
24,AGGAATAC,-0.0954
25,CATAAAGC,-0.057

row,Sequence,PBM E-score
1,GGGTTATA,-0.0618
2,ATACACAG,0.144
3,CATTCCAA,0.0263
4,CGCCAGAA,-0.163
5,CTAGAAGA,-0.00652
6,AAGCTCCA,-0.219
7,ACCGGCCC,-0.222
8,TTAGGAAA,0.0862
9,CCAGGCGA,-0.168
10,ATCAGCTG,0.0576
11,GATCGTTA,-0.231
12,CACCAGAA,-0.138
13,TCCTAAAA,0.12
14,GATGACGA,0.0729
15,AGGACACA,0.472
16,CTTCCGAA,0.0125
17,CGGCCACC,-0.0809
18,GCATCGAC,0.00871
19,TAACCCCA,-0.259
20,CCAATGAC,-0.00959
21,GCCATGAA,-0.00602
22,CATACGCG,0.106
23,CCCTTGCA,-0.291
24,GGAGACGA,0.0995
25,GTCAGACA,0.323

row,Sequence,PBM E-score
1,ATGCGGCC,0.0132
2,ACACGGCT,0.0384
3,ATACCAAC,0.156
4,AATTGCTG,0.136
5,AGTACTGC,-0.113
6,ATGTGCTG,0.108
7,GTCTGTGA,0.0908
8,CAAGAAAG,0.0067
9,CCACCCCC,-0.325
10,CTTGTATA,0.0945
11,CCAATCAC,-0.145
12,TCTAACAA,0.0472
13,TCCCGGCA,0.0389
14,AGGAACCA,0.0456
15,ACTGAATC,-0.0868
16,GAGTCGTA,-0.133
17,GGCCCGTA,-0.179
18,AATTCTAT,0.0583
19,CCTTTGCG,-0.0612
20,GTTGTGTA,0.107
21,AGGAATCA,0.0404
22,AGCCCTGA,-0.186
23,AATTGTAT,0.155
24,CACTTCCC,-0.0731
25,ATTTTGGA,0.26

row,Sequence,PBM E-score
1,TGTCAAAA,0.251
2,ACAGTGTC,-0.0415
3,CTGAAATC,-0.0568
4,CTCTAGGA,-0.0748
5,AAAAAAGG,0.222
6,CTTCACCA,-0.181
7,AGGAAATA,0.137
8,ACACTCAG,-0.143
9,CCGGCCGC,-0.228
10,CCGTACGA,0.0796
11,AGTCATGC,-0.251
12,CCCACGTA,-0.0672
13,CAGGACAA,0.481
14,GAAAATCA,0.189
15,CCCGCAAG,-0.118
16,ACACCGCA,-0.0976
17,AATTTTTA,0.158
18,AACACCCG,0.0208
19,AATTAGGA,0.134
20,AAGAAGGA,-0.172
21,TGAGTGCA,-0.206
22,GAGTCAAC,-0.158
23,AAGGATAT,0.125
24,ATTAAGGG,-0.199
25,GACACCGC,-0.0681

row,Sequence,PBM E-score
1,CGTTTTTC,0.0566
2,CCGCAGAC,-0.07
3,ACAGAGGC,-0.168
4,ATAAGTAC,0.229
5,CCAAGGCG,-0.0145
6,AGATTGAG,-0.00514
7,GGAAGTGA,-0.0753
8,CAATCACC,-0.0962
9,AAGATGAC,-0.00946
10,CGCGCGCC,0.247
11,CAAAACGC,0.153
12,ACTAAATC,0.0606
13,CACACGGC,0.0388
14,AAAGATGA,0.215
15,CAGTATAG,0.137
16,TCATCCAA,0.00053
17,AATGAACT,0.0106
18,GCAATTGA,-0.125
19,CTGTTAGC,-0.165
20,GCGGGAGA,-0.291
21,CGCTTTAC,-0.0405
22,AACGGGGA,0.111
23,GCCAAGGA,-0.0314
24,CGTGTTTA,0.073
25,CGCGGACA,0.329

row,Sequence,PBM E-score
1,GCCTGCGA,-0.174
2,CCTGAGGC,-0.336
3,CCAGCCCA,-0.218
4,CAAACGAC,0.147
5,AGGGCGAA,-0.146
6,AAAGCGTG,0.0783
7,TGTCGGAA,0.216
8,GATCGCCA,-0.138
9,CATCCATG,-0.0533
10,GACCGGAA,0.0448
11,CCGAACGA,0.179
12,GGGAAACA,-0.0369
13,AATGTATG,0.121
14,ATTTTTTA,0.21
15,AGCCCGCG,-0.185
16,ACGGAGAG,-0.251
17,TACTAAAA,0.196
18,TCCTCACA,0.0216
19,ACCCGTCT,-0.0761
20,AAATGTCA,0.456
21,GAGAGTGA,-0.0411
22,CGGAATAC,0.206
